Results from PubChem BioAssay AID686978 (National Center for Advancing Translational Sciences (NCATS), 2013).
About 64,000 (15%) of roughly 420,000 compounds were called active. The inconclusive results got no clear call from the source; some entries with a clear call stand among them for comparison. Calls come from the whole dose curve; as a rule, active = well fitted inhibition curve with a large enough effect; inconclusive = small, poorly fitted or top-dose-only effect; inactive = flat fitted curve, though single readings scatter. No potency is given beside an inconclusive call; the fits are too rough.

Experiment: qHTS for Inhibitors of human tyrosyl-DNA phosphodiesterase 1 (TDP1): qHTS in cells in absence of CPT; note: nearly all actives have a fitted effect of over 55% in size
Conditions: DT40 Tdp1-/- hTDP1 cells, no CPT, ATP luminescence, 48 h; series mostly up to 46.2 µM
In short: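 Stably hTDP1-transfected Tdp1-null chicken DT40 cells were treated with library compounds minus camptothecin and grown for at least 48 hr at 37 °C, after which cellular ATP was quantified by luminescence.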
Potency is the fitted concentration of half-maximal effect; tags give direction and shape of the fitted curve.

Row | SMILES | Potency
1 | COc1ccc2oc(=O)c(/C(N)=N/NC(=O)c3ccncc3)cc2c1 | inactive
2 | CCN(CC)c1cc(C)c2cc(NC(=O)c3cc(OC)cc(OC)c3)ccc2n1 | inconclusive [inhibitor, single point]
3 | CCOCCCNC(=O)Cn1cnc2c(cnn2-c2ccc(C)c(C)c2)c1=O | inconclusive [inhibitor, single point]
4 | COCCNC(=O)C1CCCN(Cc2ccccc2-c2ccccc2)CC1 (stereo not given) | inactive
5 | O=C(/C=C/c1ccc(Cl)cc1Cl)Nc1ccc(CN2CCOCC2)cc1 | inconclusive [inhibitor, partial curve]
6 | Cc1ccc2[nH]c(O)c(N=Nc3nc4ccccc4s3)c2c1 | active: 7.31 µM
7 | C[C@H]1CN(c2ccc(Br)cc2)C(=O)[C@@H]1CC(=O)Nc1ccccc1 | inconclusive [inhibitor, single point]
8 | COc1ccc(CC(=O)Nc2ccc(-c3nnc(-c4ccccc4)o3)cc2)cc1OC | inactive
9 | CCOC(=O)N1CCN(C(=O)/C(=C/c2ccc(Br)cc2)NC(=O)c2ccc(OC)cc2)CC1 | inconclusive [inhibitor, single point]
10 | O=[N+]([O-])c1ccc(Oc2ccc(F)cc2)c2ccncc12 | inconclusive [inhibitor, partial curve]
11 | Cc1cc(=O)n(Cc2c(F)cccc2Cl)c2c1c(C)nn2-c1cccc(F)c1 | inactive
12 | CCCNC(=O)C1(C)CCCN(C(=O)c2ccc3ccccc3c2)C1 (stereo not given) | inconclusive [inhibitor, single point]
13 | CCOc1cccc(C(=O)Nc2nc(-c3ccc(S(=O)(=O)N4CCOCC4)cc3)cs2)c1 | inconclusive [inhibitor, full curve]
14 | Cc1ccc(S(=O)(=O)N2CCOCC2)cc1C(=O)c1nccn1C | inactive
15 | CCCSc1ncc(Cl)c(C(=O)Nc2sc(C(C)=O)c(C)c2C(=O)OCC)n1 | inactive
16 | CCOc1ccc(NC(=S)Nc2ccccc2C2(C)CC2)cc1 | active: 8.2 µM
17 | O=C(Cc1ccc(Cl)cc1)NCC(c1cccs1)S(=O)(=O)c1ccccc1 (stereo not given) | inconclusive [inhibitor, partial curve]
18 | COc1ccc(NC(=O)CSc2oc(-c3ccco3)nc2S(=O)(=O)c2ccc(C)cc2)c(OC)c1 | inconclusive [inhibitor, single point]
19 | CCOc1ccc(NC(=O)Cn2c(=O)n(CC3CCC(C(=O)NCCc4ccccc4)CC3)c(=O)c3ccccc32)cc1 (stereo not given) | inactive
20 | COc1ccccc1C(=O)Nc1cccc(C(=O)OCc2cc(=O)n3c4c(sc3n2)CCCC4)c1 | inconclusive [inhibitor, single point]
21 | CC1CCN(Cc2ccc(-c3nn[nH]n3)cc2)CC1 | inactive
22 | Cc1ccc(-n2nc3c(N4CCC(C(=O)NCc5ccccc5C)CC4)nnc(C)c3c2C)cc1 | inconclusive [inhibitor, single point]
23 | CN(CC(=O)Nc1ccccc1Br)C(=O)C(Cc1ccccc1)NC(=O)c1ccccc1 (stereo not given) | inconclusive [inhibitor, single point]

Row | SMILES | Potency
24 | N#C/C(=N\Nc1ccc(S(=O)(=O)N2CCCCC2)cc1)C(N)=S | inconclusive [inhibitor, single point]
25 | Cc1ccc(Cl)cc1N1CCN(C(=O)CCS(=O)(=O)c2ccc3c(c2)NC(=O)CO3)CC1 | active: 10.3 µM
26 | Cc1nn2c(C)nc3sc4c(c3c2nc1=O)CC(C)(C)OC4 | inactive
27 | COc1ccc(-c2cn3cc(Cl)ccc3n2)cc1OC | inconclusive [inhibitor, single point]
28 | CC1(C(=O)NS(=O)(=O)c2ccc(Br)cc2)CCN1C(=O)CCc1ccccc1 (stereo not given) | inactive
29 | Cn1ccnc1C1CCCCN1Cc1nc(Cc2cccc(C(F)(F)F)c2)no1 (stereo not given) | inconclusive [inhibitor, single point]
30 | COc1ccc(CNC(=O)N2[C@H]3CC[C@@H]2C=C(c2ccc(F)cc2OCc2ccccc2)C3)cc1OC | active: 7.31 µM
31 | O=[N+]([O-])c1ccc(N2CCCC2)cc1NCc1ccccc1 | inconclusive [inhibitor, partial curve]
32 | Cc1cccc(OCC(=O)NNC(=O)CCCCC(=O)NNC(=O)COc2cccc(C)c2)c1 | inactive
33 | CCN(CC)C(=O)c1sc(NC(=O)c2cccnc2)c(C(=O)OC)c1C | inactive
34 | COc1ccccc1N1CC(C(=O)Nc2ccccc2N2CCCC2)CC1=O (stereo not given) | inactive
35 | CCOC(=O)c1ccccc1NC(=O)NCc1c(-n2cccc2)sc2c1CCCC2 | inconclusive [inhibitor, single point]
36 | CCN1CCN(CCNC(=O)c2ccc3c(c2)NC(=O)/C(=C\c2ccc(OC)c(OC)c2)S3)CC1 | inconclusive [inhibitor, single point]
37 | COc1ccc(OC)c(Nc2nc(=O)c3cccnc3s2)c1 | inactive
38 | CC1CCC/C=C/C(=O)c2c(O)cc(O)cc2CC(=O)O1 (stereo not given) | active: 4.11 µM
39 | CN(c1ccccc1C(=O)Nc1ccc(S(=O)(=O)N2CCOCC2)cc1)S(=O)(=O)c1ccccc1 | inconclusive [inhibitor, partial curve]
40 | COC(=O)c1ccc(C(=O)Nc2cc(Cl)ccc2Cl)cc1NC(=O)c1ccccc1C | inconclusive [inhibitor, partial curve]
41 | CC(C)Oc1ccc(F)cc1-c1cc(C(=O)NCc2ccc(C(F)(F)F)cc2)[nH]n1 | inconclusive [inhibitor, single point]
42 | CCCN(CCC)S(=O)(=O)c1ccc(C(=O)Nc2nnc(-c3cc(OC)cc(OC)c3)o2)cc1 | active: 4.61 µM
43 | CN(C)S(=O)(=O)c1ccc2c(c1)N(CC(=O)Nc1cccc(C(F)(F)F)c1)C(=O)CS2 | inconclusive [inhibitor, single point]
44 | CC1(C)Oc2ccc3ccc(=O)oc3c2/C(=C/N)C1=O | inconclusive [inhibitor, partial curve]
45 | Cc1ccc(-n2c(SCC(=O)N3CCc4ccccc43)nc3c([nH]c4ccccc43)c2=O)cc1 | inconclusive [inhibitor, full curve, poor fit]
